{"source": "the supplement of paper PMC8728848", "binders": {"B1": {"name": "PX14367B-bvu-516-23-516 (Bacteroides vulgatus) (protein)", "chain": "LDTIPTTYVDAGSVFGKTGDAEKVLNGGWNYLMETFNSYANPGYGAMLRANDAMGSDVVLNSKYGFRTHNEFSAIYGKGGTNTLSWLLAYRVINDCNGVLDNIDAAEGTQADRNRIKGQALALRGFLYLHLASCYSFAIDKDPDAVCAPIYTQSTDETIAAEGKPASSVSEVYAQSINDLEEALELIPETYVRDAKHKIDNEVVLGILSRACLYARQWEKAKTYSDKLLAKDNYLMTESEYKAGFNSVDNKEWIWGHAQTNDQSNASYQFHYLDTTTKGSYYYSFNVDPYFRDLFEDGDYRKEMLFWATDPGADVESAAYVWMRNSKFRFRDIENQLGDIVLMRVAEIYLINAEAKAHLNDPDAINKLNDLKTARGAKTIHTNLSQQDLLETIWLERRKELWGEGFSLIDIIRNQQTVVRNAYPEGPIDYIYTDENGQTHTLKKKTQGHRFFNFPDKSAFCPNSKYYLYRITDSEELANKNLYKDHPKLSIYTK"}}, "experiment_in_all_cases": "glycan array binding signal (z-score within array); higher = stronger binding", "details_in_all_cases": "glycan notation: IUPAC condensed, linker removed", "key": {"Fuc(a1-3)GlcNAc": {"target": "Fuc(a1-3)GlcNAc", "summary_of_the_method": "(§1)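 From the Consortium for Functional Glycomics database, 3228 arrays were curated, keeping only those whose protein sequence was available. Binding is given as a within-array Z-score averaged across arrays sharing a protein sequence and across linkers. Negative Z-scores can be read as non-binding.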"}, "[1]": {"target": "Fuc(a1-3)[Gal(b1-4)]Glc6S", "summary_of_the_method": "as §1"}, "[2]": {"target": "Fuc(a1-3)[Gal(b1-4)]GlcNAc", "summary_of_the_method": "as §1"}, "[3]": {"target": "Fuc(a1-3)[Gal(b1-4)]GlcNAc(b1-2)Man", "summary_of_the_method": "as §1"}, "[4]": {"target": "Fuc(a1-3)[Gal(b1-4)]GlcNAc(b1-2)Man(a1-3)[Fuc(a1-3)[Gal(b1-4)]GlcNAc(b1-2)Man(a1-6)]Man(b1-4)GlcNAc(b1-4)GlcNAc", "summary_of_the_method": "as §1"}, "[5]": {"target": "Fuc(a1-3)[Gal(b1-4)]GlcNAc(b1-2)Man(a1-3)[Fuc(a1-3)[Gal(b1-4)]GlcNAc(b1-2)Man(a1-6)]Man(b1-4)GlcNAc(b1-4)[Fuc(a1-6)]GlcNAc", "summary_of_the_method": "as §1"}, "[6]": {"target": "Fuc(a1-3)[Gal(b1-4)]GlcNAc(b1-3)Gal(b1-3)[Fuc(a1-4)]GlcNAc", "summary_of_the_method": "as §1"}, "[7]": {"target": "Fuc(a1-3)[Gal(b1-4)]GlcNAc(b1-3)Gal(b1-4)[Fuc(a1-3)]GlcNAc", "summary_of_the_method": "as §1"}, "[8]": {"target": "Fuc(a1-3)[Gal(b1-4)]GlcNAc(b1-3)Gal(b1-4)[Fuc(a1-3)]GlcNAc(b1-3)Gal(b1-4)[Fuc(a1-3)]GlcNAc", "summary_of_the_method": "as §1"}, "[9]": {"target": "Fuc(a1-3)[Gal(b1-4)]GlcNAc(b1-3)GalNAc", "summary_of_the_method": "as §1"}, "[10]": {"target": "Fuc(a1-3)[Gal(b1-4)]GlcNAc(b1-6)GalNAc", "summary_of_the_method": "as §1"}, "[11]": {"target": "Fuc(a1-3)[Gal(b1-4)]GlcNAc(b1-6)[Gal(b1-3)GlcNAc(b1-3)]Gal(b1-4)Glc", "summary_of_the_method": "as §1"}, "[12]": {"target": "Fuc(a1-3)[Gal(b1-4)]GlcNAc6S", "summary_of_the_method": "as §1"}, "[13]": {"target": "Fuc(a1-3)[Gal3S(b1-4)]Glc", "summary_of_the_method": "as §1"}, "[14]": {"target": "Fuc(a1-3)[Gal3S(b1-4)]GlcNAc", "summary_of_the_method": "as §1"}, "[15]": {"target": "Fuc(a1-3)[Gal3S(b1-4)]GlcNAc6S", "summary_of_the_method": "as §1"}, "[16]": {"target": "Fuc(a1-3)[GalNAc(b1-4)]GlcNAc", "summary_of_the_method": "as §1"}, "[17]": {"target": "Fuc(a1-3)[GalNAc(b1-4)]GlcNAc6S", "summary_of_the_method": "as §1"}, "Fuc(a1-4)GlcNAc": {"target": "Fuc(a1-4)GlcNAc", "summary_of_the_method": "as §1"}, "Fuc(b1-3)GlcNAc": {"target": "Fuc(b1-3)GlcNAc", "summary_of_the_method": "as §1"}, "Gal(a1-2)Gal": {"target": "Gal(a1-2)Gal", "summary_of_the_method": "as §1"}, "Gal(a1-3)Gal": {"target": "Gal(a1-3)Gal", "summary_of_the_method": "as §1"}, "Gal(a1-3)Gal(b1-3)GlcNAc": {"target": "Gal(a1-3)Gal(b1-3)GlcNAc", "summary_of_the_method": "as §1"}, "[18]": {"target": "Gal(a1-3)Gal(b1-3)GlcNAc(b1-2)Man", "summary_of_the_method": "as §1"}, "[19]": {"target": "Gal(a1-3)Gal(b1-3)GlcNAc(b1-2)Man(a1-3)[Gal(a1-3)Gal(b1-3)GlcNAc(b1-2)Man(a1-6)]Man(b1-4)GlcNAc(b1-4)GlcNAc", "summary_of_the_method": "as §1"}, "[20]": {"target": "Gal(a1-3)Gal(b1-3)GlcNAc(b1-3)GalNAc", "summary_of_the_method": "as §1"}, "[21]": {"target": "Gal(a1-3)Gal(b1-3)GlcNAc(b1-6)GalNAc", "summary_of_the_method": "as §1"}, "[22]": {"target": "Gal(a1-3)Gal(b1-3)[Fuc(a1-4)]GlcNAc(b1-2)Man(a1-3)[Gal(a1-3)Gal(b1-3)[Fuc(a1-4)]GlcNAc(b1-2)Man(a1-6)]Man(b1-4)GlcNAc(b1-4)GlcNAc", "summary_of_the_method": "as §1"}, "Gal(a1-3)Gal(b1-4)Glc": {"target": "Gal(a1-3)Gal(b1-4)Glc", "summary_of_the_method": "as §1"}, "Gal(a1-3)Gal(b1-4)GlcNAc": {"target": "Gal(a1-3)Gal(b1-4)GlcNAc", "summary_of_the_method": "as §1"}, "[23]": {"target": "Gal(a1-3)Gal(b1-4)GlcNAc(b1-2)Man", "summary_of_the_method": "as §1"}, "[24]": {"target": "Gal(a1-3)Gal(b1-4)GlcNAc(b1-2)Man(a1-3)[Gal(a1-3)Gal(b1-4)GlcNAc(b1-2)Man(a1-6)]Man(b1-4)GlcNAc(b1-4)GlcNAc", "summary_of_the_method": "as §1"}, "[25]": {"target": "Gal(a1-3)Gal(b1-4)GlcNAc(b1-3)GalNAc", "summary_of_the_method": "as §1"}, "[26]": {"target": "Gal(a1-3)Gal(b1-4)GlcNAc(b1-6)GalNAc", "summary_of_the_method": "as §1"}, "[27]": {"target": "Gal(a1-3)Gal(b1-4)[Fuc(a1-3)]GlcNAc", "summary_of_the_method": "as §1"}, "[28]": {"target": "Gal(a1-3)Gal(b1-4)[Fuc(a1-3)]GlcNAc(b1-2)Man(a1-3)[Gal(a1-3)Gal(b1-4)[Fuc(a1-3)]GlcNAc(b1-2)Man(a1-6)]Man(b1-4)GlcNAc(b1-4)GlcNAc", "summary_of_the_method": "as §1"}, "Gal(a1-3)GalNAc": {"target": "Gal(a1-3)GalNAc", "summary_of_the_method": "as §1"}}, "note": "The other results are listed elsewhere or left out."}
{"binder": "B1", "values": [{"measurement": "glycan array binding signal (z-score)", "setting": "Fuc(a1-3)GlcNAc", "result": -0.348}, {"measurement": "glycan array binding signal (z-score)", "setting": "[1]", "result": -0.217}, {"measurement": "glycan array binding signal (z-score)", "setting": "[2]", "result": -0.23}, {"measurement": "glycan array binding signal (z-score)", "setting": "[3]", "result": -0.331}, {"measurement": "glycan array binding signal (z-score)", "setting": "[4]", "result": -0.223}, {"measurement": "glycan array binding signal (z-score)", "setting": "[5]", "result": 0.066}, {"measurement": "glycan array binding signal (z-score)", "setting": "[6]", "result": -0.255}, {"measurement": "glycan array binding signal (z-score)", "setting": "[7]", "result": -0.358}, {"measurement": "glycan array binding signal (z-score)", "setting": "[8]", "result": -0.235}, {"measurement": "glycan array binding signal (z-score)", "setting": "[9]", "result": -0.215}, {"measurement": "glycan array binding signal (z-score)", "setting": "[10]", "result": 0.197}, {"measurement": "glycan array binding signal (z-score)", "setting": "[11]", "result": -0.35}, {"measurement": "glycan array binding signal (z-score)", "setting": "[12]", "result": 0.766}, {"measurement": "glycan array binding signal (z-score)", "setting": "[13]", "result": -0.34}, {"measurement": "glycan array binding signal (z-score)", "setting": "[14]", "result": -0.318}, {"measurement": "glycan array binding signal (z-score)", "setting": "[15]", "result": -0.322}, {"measurement": "glycan array binding signal (z-score)", "setting": "[16]", "result": -0.117}, {"measurement": "glycan array binding signal (z-score)", "setting": "[17]", "result": -0.242}, {"measurement": "glycan array binding signal (z-score)", "setting": "Fuc(a1-4)GlcNAc", "result": -0.389}, {"measurement": "glycan array binding signal (z-score)", "setting": "Fuc(b1-3)GlcNAc", "result": -0.298}, {"measurement": "glycan array binding signal (z-score)", "setting": "Gal(a1-2)Gal", "result": -0.287}, {"measurement": "glycan array binding signal (z-score)", "setting": "Gal(a1-3)Gal", "result": 0.031}, {"measurement": "glycan array binding signal (z-score)", "setting": "Gal(a1-3)Gal(b1-3)GlcNAc", "result": 1.82}, {"measurement": "glycan array binding signal (z-score)", "setting": "[18]", "result": 0.781}, {"measurement": "glycan array binding signal (z-score)", "setting": "[19]", "result": 0.222}, {"measurement": "glycan array binding signal (z-score)", "setting": "[20]", "result": -0.21}, {"measurement": "glycan array binding signal (z-score)", "setting": "[21]", "result": -0.28}, {"measurement": "glycan array binding signal (z-score)", "setting": "[22]", "result": 0.276}, {"measurement": "glycan array binding signal (z-score)", "setting": "Gal(a1-3)Gal(b1-4)Glc", "result": -0.194}, {"measurement": "glycan array binding signal (z-score)", "setting": "Gal(a1-3)Gal(b1-4)GlcNAc", "result": -0.311}, {"measurement": "glycan array binding signal (z-score)", "setting": "[23]", "result": -0.258}, {"measurement": "glycan array binding signal (z-score)", "setting": "[24]", "result": 0.567}, {"measurement": "glycan array binding signal (z-score)", "setting": "[25]", "result": -0.161}, {"measurement": "glycan array binding signal (z-score)", "setting": "[26]", "result": -0.35}, {"measurement": "glycan array binding signal (z-score)", "setting": "[27]", "result": -0.376}, {"measurement": "glycan array binding signal (z-score)", "setting": "[28]", "result": -0.017}, {"measurement": "glycan array binding signal (z-score)", "setting": "Gal(a1-3)GalNAc", "result": -0.361}]}
